Our source for the cytotoxicity call and growth inhibition call values is the antibiotic and cytotoxicity screens of Wong et al. (2023).

The list shows a part of the results.

The test system of assay [1] is HSkMC (human skeletal muscle cells). Briefly: cytotoxicity call (relative viability < 0.9). To be noted: 10 µM.
In assay [2] the test system is HepG2. Briefly: cytotoxicity call (relative viability < 0.9). To be noted: 10 µM.
In assay [3] the test system is S. aureus RN4220. Briefly: growth inhibition call (relative growth <= 0.2). As to conditions: 50 µM.

Consider `CC(C)NC(=O)Nc1ccc2c(c1)CC(=O)N([C@@H](C)CO)C[C@@H](C)[C@@H](CN(C)S(=O)(=O)c1ccc(Cl)cc1)O2`, for which the cytotoxicity call in assay [1] and in assay [2] was “inactive” throughout. The growth inhibition call in assay [3] was “inactive”.

In the case of `CCC(C)(C)c1ccc(CC(C)CN2CC(C)OC(C)C2)cc1.Cl` (stereo unspecified), the cytotoxicity call in assay [1] and in assay [2] was “inactive” each time. In assay [3], the growth inhibition call is “inactive”.

As to `COc1c(C)c2c(c(O)c1CC=C(C)CCC(=O)OCCN1CCOCC1)C(=O)OC2`, the cytotoxicity call in assay [1] and in assay [2] was “inactive” in each case. Besides, the growth inhibition call in assay [3] was “inactive”.

With `C[C@@H]1CN([C@@H](C)CO)S(=O)(=O)c2ccc(C#CC3(O)CCCC3)cc2O[C@@H]1CN(C)C(=O)Cc1ccccc1`, the cytotoxicity call in assay [1] and in assay [2] was “inactive” each time. The growth inhibition call in assay [3] was “inactive”.

Consider `CC(C)NC(=O)Nc1ccc2c(c1)CC(=O)N([C@H](C)CO)C[C@@H](C)[C@H](CN(C)S(=O)(=O)c1ccc(Cl)cc1)O2`, for which the cytotoxicity call in assay [1] and in assay [2] was “inactive” throughout. The growth inhibition call in assay [3] was “inactive”.

As to `C[C@H]1CN([C@@H](C)CO)C(=O)c2cccc(NC(=O)c3nc4ccccc4s3)c2O[C@@H]1CN(C)C(=O)Nc1cccc2ccccc12`, the cytotoxicity call in assay [1] and in assay [2] was “inactive” throughout. The growth inhibition call in assay [3] is “inactive”.

On to `COc1ccc(S(=O)(=O)N2CCC(N3C[C@H]4CC[C@@H](N)[C@@H]4C3)CC2)cc1`, for which the cytotoxicity call in assay [1] and in assay [2] was “inactive” each time. Further, the growth inhibition call in assay [3] was “inactive”.

For the compound `C[C@@H]1CN([C@H](C)CO)C(=O)c2cc(NS(=O)(=O)c3cccs3)ccc2O[C@@H](C)CCCCO[C@@H]1CN(C)Cc1ccc(C(F)(F)F)cc1`, the cytotoxicity call in assay [1] and in assay [2] was “inactive” each time. Moreover, in assay [3], the growth inhibition call was “inactive”.

For `CCC(=O)N(C)C[C@@H]1Oc2ncc(C#C[C@@H](C)O)cc2C(=O)N([C@@H](C)CO)C[C@@H]1C`, the cytotoxicity call in assay [1] and in assay [2] was “inactive” throughout. In assay [3], the growth inhibition call was “inactive”.

For `CC1CC2C3CCC4=CC(=O)C=CC4(C)C3(F)C(O)CC2(C)C1(O)C(=O)CO` (stereo unspecified), the cytotoxicity call in assay [1] and in assay [2] was “inactive” throughout. Further, the growth inhibition call in assay [3] was “inactive”.

`CS(=O)(=O)N1[C@@H]2Cn3c(ccc(-c4ccccc4)c3=O)[C@H]1[C@@H](C(=O)NCC1CC1)[C@@H]2CO`: the cytotoxicity call in assay [1] and in assay [2] was “inactive” each time. In assay [3], the growth inhibition call was “inactive”.

`C[C@H](CO)N1C[C@H](C)[C@H](CN(C)C(=O)Nc2ccccc2)Oc2c(NC(=O)Nc3cccc4ccccc34)cccc2C1=O`: the cytotoxicity call in assay [1] and in assay [2] was “inactive” each time. In addition, the growth inhibition call in assay [3] is “inactive”.

In the case of `C[C@@H]1CN([C@H](C)CO)C(=O)c2cc(/C=C/c3ccccc3)cnc2O[C@H]1CN(C)C(=O)Nc1ccc(C(F)(F)F)cc1`, the cytotoxicity call in assay [1] and in assay [2] was “inactive” in each case. Further, the growth inhibition call in assay [3] was “inactive”.

Take `COc1ccc(NC(=O)N(C)C[C@H]2Oc3ccc(NC(=O)CCN4CCOCC4)cc3C(=O)N([C@H](C)CO)C[C@H]2C)cc1`: the cytotoxicity call in assay [1] and in assay [2] was “inactive” in each case. The growth inhibition call in assay [3] was “inactive”.

As to `COc1cccc(C#Cc2cnc3c(c2)C(=O)N([C@H](C)CO)C[C@@H](C)[C@H](CN(C)C(=O)C2CCOCC2)O3)c1`, the cytotoxicity call in assay [1] and in assay [2] was “inactive” each time. Also, the growth inhibition call in assay [3] is “inactive”.

For the compound `COc1ccc(NC(=O)Nc2ccc3c(c2)C(=O)N([C@@H](C)CO)C[C@H](C)[C@H](CN(C)Cc2ccncc2)OCCCC[C@H](C)O3)cc1`, the cytotoxicity call in assay [1] and in assay [2] was “inactive” in each case. Further, the growth inhibition call in assay [3] was “inactive”.

In the case of `Cc1noc(C)c1NC(=O)N(C)C[C@H]1Oc2ccc(NC(=O)Cn3cnnn3)cc2C(=O)N([C@@H](C)CO)C[C@@H]1C`, the cytotoxicity call in assay [1] and in assay [2] was “inactive” each time. The growth inhibition call in assay [3] is “inactive”.

As to `Cc1ccc(S(=O)(=O)Nc2ccc3c(c2)C(=O)N([C@H](C)CO)C[C@H](C)[C@H](CN(C)Cc2ccc(C(=O)O)cc2)OCCCC[C@H](C)O3)cc1`, the cytotoxicity call in assay [1] and in assay [2] was “inactive” in each case. The growth inhibition call in assay [3] was “inactive”.

Regarding `C[C@@H]1CN([C@@H](C)CO)C(=O)Cc2cc(NS(=O)(=O)c3ccc(Cl)cc3)ccc2O[C@@H]1CN(C)Cc1ccc(C(F)(F)F)cc1`, the cytotoxicity call in assay [1] and in assay [2] was “active” each time. Further, the growth inhibition call in assay [3] was “inactive”.

Take `C[C@@H]1CN([C@H](C)CO)C(=O)CCCn2nncc2CO[C@@H]1CN(C)C(=O)Nc1cccc2ccccc12`: the cytotoxicity call in assay [1] and in assay [2] was “inactive” throughout. For the same compound, the growth inhibition call in assay [3] is “inactive”.

Consider `O=C(C[C@@H]1CC[C@@H]2[C@H](COC[C@@H](O)CN2S(=O)(=O)c2ccc(Cl)cc2)O1)N[C@@H]1CCN(Cc2ccccc2)C1`, for which the cytotoxicity call in assay [1] and in assay [2] was “inactive” throughout. Besides, the growth inhibition call in assay [3] was “inactive”.

For `C[C@@H]1CN([C@@H](C)CO)C(=O)Cc2cc(NC(=O)C3CCCCC3)ccc2O[C@@H]1CN(C)Cc1ccc(Cl)c(Cl)c1`, the cytotoxicity call in assay [1] is “active”. Also, in assay [2], the cytotoxicity call is “inactive”. Besides, in assay [3], the growth inhibition call is “inactive”.

With `O=C1O[C@H](c2ccccc2)[C@H](c2ccccc2)N2[C@H]1[C@@H](C(=O)N1CCCCCCC1)[C@]1(C(=O)Nc3ccc(C#CC4(O)CCCCCC4)cc31)[C@H]2c1ccccc1OCCO`, the cytotoxicity call in assay [1] and in assay [2] was “inactive” each time. The growth inhibition call in assay [3] is “inactive”.

On to `O=C(C[C@@H]1CC[C@H](NC(=O)Nc2ccc3c(c2)OCO3)[C@H](CO)O1)NCCCN1CCOCC1`, for which the cytotoxicity call in assay [1] and in assay [2] was “inactive” throughout. Besides, the growth inhibition call in assay [3] was “inactive”.

For `C[C@@H]1CN([C@H](C)CO)S(=O)(=O)c2ccc(C#CC3(O)CCCC3)cc2O[C@@H]1CN(C)C(=O)Nc1ccccc1`, the cytotoxicity call in assay [1] was “inactive”. Moreover, the cytotoxicity call in assay [2] was “active”. Besides, the growth inhibition call in assay [3] was “inactive”.

With `Cc1nccnc1N1CCCCC1.O=S(=O)(O)O`, the cytotoxicity call in assay [1] and in assay [2] was “inactive” in each case. Besides, the growth inhibition call in assay [3] was “inactive”.

For `O=C1O[C@H](c2ccccc2)[C@H](c2ccccc2)N2[C@H]1[C@@H](C(=O)N1CCCCCCC1)[C@]1(C(=O)Nc3ccc(C#CCCO)cc31)[C@H]2c1ccc(O)cc1`, the cytotoxicity call in assay [1] and in assay [2] was “inactive” throughout. Also, the growth inhibition call in assay [3] was “inactive”.
